# Measured values published in PubChem BioAssay AID485297 (National Center for Advancing Translational Sciences (NCATS), 2010).
# The campaign covered roughly 320,000 compounds. About 9,100 (2.8%) were called active. Inconclusive means that the source gave no clear call. Such entries were picked first, then a sample of the others. The call rests on the fitted dose curve; in most records, active means well fitted activation curve with a large enough effect; inconclusive means small, poorly fitted or top-dose-only effect; inactive means no such curve, though single readings can be large or run the other way. No potency is given beside an inconclusive call; the fits are too rough.
# Test: qHTS Assay for Rab9 Promoter Activators; further: nearly all actives have a fitted effect of over 60% in size; on activation, negative = inhibition: % of control where 0% means no effect
# Conditions: Huh7 Rab9 promoter-luciferase reporter, luminescence, 24 h; series mostly up to 9.22 µM; activation, negative = inhibition: at the top concentration
# Method in brief: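 Luminescence read-out: Huh7 cells stably expressing Rab9-luciferase, treated 24 h with compound at 37 °C, then lysed with luciferase reagent for 10 min at ambient before reading.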
# Potency means the concentration at half of the fitted maximal effect; tags describe the fitted curve by direction and shape.
Structure (SMILES),"activation, negative = inhibition",Potency
COc1cccc(NC(=O)CN(C)C(=O)c2ccc(-n3cncn3)c([N+](=O)[O-])c2)c1,inactive: 2.25%,
CCCC(=O)N1CCCC(c2nc(-c3cccs3)no2)C1 (stereo not drawn),,"inconclusive [activator, single point]"
CC(C)(C)C(=O)NC(=S)Nc1sc2c(c1C#N)CCCCC2,inactive: 21.9%,
O=C(NCC1OCCc2ccccc21)c1ccco1 (stereo not drawn),,"inconclusive [activator, single point]"
O=C(Cn1[nH]c(=O)c2ccccc2c1=O)OCC(=O)N1CCc2ccccc2C1,inactive: -0.79%,
Nc1c2c(nn1-c1ccc(C(=O)O)cc1)CNC2,inactive: 2.59%,
COc1ccc([C@H]2CC(=O)C=C(c3cc4ccccc4s3)C2)cc1OC,inactive: -2.33%,
C=CCOc1cccc(CNc2cccc(C(=O)O)c2)c1,,"inconclusive [activator, partial curve]"
O=C(c1ccccc1)N1CCN(c2ncnc3c2cnn3-c2ccccc2)CC1,,"inconclusive [activator, partial curve]"
COc1ccc2oc(=O)c(C(=O)NC(C)c3ccccc3)cc2c1 (stereo not drawn),,"inconclusive [activator, partial curve]"
CCOC(=O)c1sc2nc(NC(=O)C3CC3)sc2c1C,,"inconclusive [activator, single point]"
N#Cc1ccsc1NC(=O)COC(=O)c1ccc(NC(N)=O)cc1,,"inconclusive [activator, full curve]"
Cc1cc(NCCCN2CCOCC2)n2ncc(-c3ccc(Cl)cc3)c2n1,,"inconclusive [activator, partial curve]"
COc1ccc(/C=N/Nc2nc3ccccc3s2)cc1O,,"inconclusive [activator, single point]"
CCCc1nnc(SCC(=O)Nc2ccccc2Cl)n1CC1CCCO1 (stereo not drawn),inactive: -0.947%,
N#Cc1ccsc1NC(=O)CCc1ccccc1,,"inconclusive [activator, full curve]"
O=C(O)c1ccc2nc(-c3ccccc3)c(-c3ccccc3)nc2c1,,"inconclusive [activator, partial curve]"
CCOCC(=O)Nc1c(C(=O)Nc2ccc3c(c2)OCO3)oc2ccccc12,,"inconclusive [activator, single point]"
CCC1CCCCN1CCCNC(=O)c1ccc(/C=C2/Sc3ccccc3NC2=O)cc1 (stereo not drawn),,"inconclusive [activator, full curve]"
Cc1cccc(NC(=O)Nc2ccc(Br)cc2)n1,,"inconclusive [activator, single point]"
Cc1nc(COc2cccc(Cl)c2)sc1C(=O)/C=C/N(C)C,,"inconclusive [activator, single point]"
Cc1ccc2oc(C(=O)Nc3ccc(S(=O)(=O)Nc4onc(C)c4C)cc3)c(C)c2c1,,"inconclusive [activator, single point]"
O=C1Nc2ccccc2Nc2ncccc21,inactive: 4.35%,
CC(=O)Oc1ccc(-c2csc(Nc3ccc(Cl)cn3)n2)cc1,,"inconclusive [activator, single point]"

Structure (SMILES),"activation, negative = inhibition",Potency
COC(=O)c1ccc(NC(=O)c2ccc(OC(C)=O)c(OC)c2)cc1,,"inconclusive [activator, single point]"
Cc1cccc(N2CCC(N=CN(C)C)=N2)c1,,"inconclusive [activator, partial curve]"
CCc1nnc(NC(=O)CSc2nc(C)c3c(c2C#N)CCCC3)s1,,"inconclusive [activator, partial curve]"
Cc1ccccc1-n1c(C)cc(/C=C2\NC(=O)NC2=O)c1C,,"inconclusive [activator, partial curve]"
COc1nc(N=C(N)N)nc2ccc(C)cc12,inactive: -11.7%,
O=C(Nc1ccccc1N1CCOCC1)c1ccc(Cl)c(S(=O)(=O)N2CCCC2)c1,inactive: 3.68%,
COCc1nc2sc3c(c2c(=O)[nH]1)CCCC3,inactive: -2.8%,
COc1ccc(N2CCN(C(=O)Cn3ncc4c([nH]c5ccccc54)c3=O)CC2)cc1,inactive: -9.88%,
COc1ccc(NC(=O)COc2ccccc2)c(OC)c1,,"inconclusive [activator, partial curve]"
CC(=O)c1sc(NC(=O)c2ccco2)nc1-c1ccccc1,,"inconclusive [activator, partial curve]"
O=C(COC(=O)c1ccc(N2CCCC2=O)cc1)c1ccccc1,,"inconclusive [activator, partial curve]"
S=C(Nc1ccccc1)c1nc2ccccc2s1,,active: 2.51 µM
Cc1ccc2nc3c(c(C(=O)OCC(=O)NC4CCS(=O)(=O)C4)c2c1)CCCC3 (stereo not drawn),inactive: -28.4%,
CC1CCN(Cc2nnnn2CCCC(=O)NCCN2CCOCC2)CC1,inactive: -2.39%,
Cc1nnc2c3cnn(-c4ccc(Cl)cc4)c3ncn12,,"inconclusive [activator, single point]"
CCn1c2ccc(C)cc2c2nc3cc(C(=O)O)ccc3nc21,,"inconclusive [activator, single point]"
C/C(=N/NC(=O)c1ccco1)c1ccc(NC(=O)c2ccc(Br)o2)cc1,,"inconclusive [activator, partial curve]"
CC(C)(C)c1ccc(-c2nc(N)nc(N)n2)cc1,,"inconclusive [activator, partial curve]"
CC(=O)n1nc(-c2ccccc2)nc1NCc1cccs1,,"inconclusive [activator, partial curve]"
O=C(Nc1cccc(C(=O)O)c1)/C(=C\c1ccc2c(c1)OCO2)NC(=O)c1ccc(Br)o1,,"inconclusive [activator, partial curve]"
CCCCc1nc2cc(C(=O)NCc3nccn3CC)ccc2o1,,"inconclusive [activator, full curve, poor fit]"
CC1(C)Cc2c(sc(NC(=O)Nc3ccccc3)c2C(N)=O)CO1,,active: 1.26 µM
O=C(OCc1csc(-c2ccccc2)n1)c1ccccc1O,,active: 3.98 µM
COc1cc(C(=O)Nc2ccc(N3CCCS3(=O)=O)cc2)c([N+](=O)[O-])cc1OC,inactive: -3.17%,
